Source: PubChem BioAssay AID1347120 (National Center for Advancing Translational Sciences (NCATS), 2019)
The whole screen tested about 390,000 compounds, of which about 930 (0.24%) were called active. The inconclusive results got no clear call from the source; some entries with a clear call stand among them for comparison. Calls follow the shape of the dose curve; as a rule, active = well fitted activation curve with a large enough effect; inconclusive = small, poorly fitted or top-dose-only effect; inactive = no such curve, though single readings can be large or run the other way. Potencies of inconclusive entries are doubtful fits and often do not repeat.

Assay: qHTS for Suppressors of FUS Proteinopathy: Primary screen using FUS-linked yeast assay; also: nearly all actives have a fitted effect of over 55% in size
Conditions: S. cerevisiae FUS-expressing, OD600, 24 h; Potency: growth rescue; series mostly up to 76.6 µM
Summary of the method: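 S. cerevisiae expressing FUS from galactose induction served as the toxicity model. Growth after 24hr at 30C, read as absorbance at 600 nm, indicates suppression of toxicity; compounds dosed at several concentrations.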
Potency is read from the fitted curve at half-maximal effect; tags tell the direction and shape of the fitted curve.

| Compound | Potency |
| --- | --- |
| N#Cc1cccc(NC(=O)c2cc(C3CCCCN3C(=O)c3ccc4c(c3)CCO4)on2)c1 (stereo not drawn) | inconclusive: 28.2 µM [activator, partial curve] |
| CCCCN(CC)C(=O)CSc1nc2n[nH]c(C)c2c(=N)n1-c1ccc(CC)cc1 | inconclusive: 28.2 µM [activator, partial curve, poor fit] |
| C[C@H](O)[C@@H]1C(=O)N2CCc3ccc(-c4ccccc4)cc3[C@@H]2C[C@@H]1N(C)C(=S)Nc1ccc(F)cc1 | inconclusive: 50.1 µM [activator, single point] |
| O=C(NCc1ccccc1CN1CCCC1)c1ccc(Cl)c(S(=O)(=O)N2CCCC2)c1 | inconclusive: 5.01 µM [activator, full curve, poor fit] |
| CC(C)C[C@H](NC1(C(=O)NC2CCCCC2)CCN(C(=O)OC(C)(C)C)CC1)C(=O)NCCc1c[nH]c2ccccc12 | inconclusive: 22.4 µM [activator, single point] |
| Cc1ccc(N(C)C(=O)c2sc3nc4n(c(=O)c3c2C)CCCC4)cc1C | inactive |
| CCOc1ccc(CNC(=O)c2oc3c(c2C)-c2nn(Cc4cccc(Cl)c4)cc2CC3)cc1 | inconclusive: 20 µM [activator, single point] |
| CC1(C(=O)NS(=O)(=O)c2ccc(Cl)cc2)CCN1C(=O)C1(c2ccc(Cl)cc2)CCC1 (stereo not drawn) | inconclusive: 25.1 µM [activator, single point] |
| CCCC1CCC2(CCCN2CCOC(=O)Nc2cccc(Cl)c2)CC1 (stereo not drawn) | inactive |
| Cc1c(C(=O)N2CCN(S(C)(=O)=O)CC2)oc2ccccc12 | inactive |
| O=C(c1ccc2c(c1)N(Cc1ccc(Cl)cc1)C(=O)c1ccccc1S2(=O)=O)N1CCCC1 | active: 31.6 µM |
| CCOC(=O)c1ccc(N2C(=O)c3n[nH]c(-c4ccco4)c3C2c2ccc(C(=O)OC)cc2)cc1 (stereo not drawn) | inconclusive: 28.2 µM [activator, partial curve, poor fit] |
| COc1ccccc1-c1cc(NC=O)c2ncc(-c3ccc(S(C)(=O)=O)cc3)n2c1 | inconclusive: 35.5 µM [activator, single point] |
| CCN(CC)C(=O)Cn1c(=O)n(CCCCCC(=O)NCc2ccc3c(c2)OCO3)c(=O)c2sccc21 | inactive |
| O=C(CN1C(=O)NC(Cc2c[nH]c3ccccc23)C1=O)Nc1cccc(S(=O)(=O)N2CCCC2)c1 (stereo not drawn) | inconclusive: 39.8 µM [activator, partial curve, poor fit] |
| Cc1ccc2nc(CSc3nnc(-c4ccncc4)n3C)cc(=O)n2c1 | inconclusive: 28.2 µM [activator, partial curve, poor fit] |
| Cc1cc(Cl)ccc1-n1c(CCC(=O)O)ccc1-c1cccs1 | inconclusive: 28.2 µM [activator, single point] |
| CCCCC1CCC(C(=O)N2CC(=O)Nc3ccc(Br)cc3C2c2ccc(F)cc2)CC1 (stereo not drawn) | inconclusive: 25.1 µM [activator, partial curve, poor fit] |
| O=C(Nc1c(C(=O)Nc2cccc3ccccc23)cnn1-c1ccccc1)c1ccco1 | inconclusive: 25.1 µM [activator, partial curve] |
| OCCCn1c(C2CCCN2c2nc(-c3ccc(F)cc3)cs2)nc2cc(C(F)(F)F)ccc21 (stereo not drawn) | inconclusive: 35.5 µM [activator, single point] |

| Compound | Potency |
| --- | --- |
| Cc1ccc(N(CC(=O)N2CCN(c3cc(C)ccc3C)CC2)S(=O)(=O)c2c(C)nn(C)c2C)cc1 | inconclusive: 25.1 µM [activator, partial curve, poor fit] |
| Cc1ccccc1N(C(=O)c1snc(C(N)=O)c1N)C(C(=O)NC1CCCC1)c1ccco1 (stereo not drawn) | inconclusive: 11.2 µM [activator, partial curve] |
| CCOC(=O)c1noc2nc(C)n(CC(=O)Nc3cccc(OC)c3)c(=O)c12 | inactive |
| O=c1cc(CSc2nnc(-c3cccs3)n2Cc2ccccc2)nc2sc3ccccc3n12 | inconclusive: 31.6 µM [activator, single point] |
| NC(CCc1ccccc1)c1csc(NC(=O)Nc2ccccc2Oc2ccccc2)n1 (stereo not drawn) | inconclusive: 28.2 µM [activator, partial curve] |
| C/C(=N\Nc1cc(C)nc(-c2ccccc2O)n1)c1ccccc1O | inactive |
| Cc1ccc(CN(C(=O)c2ccc(OCC(C)C)cc2)c2ccccn2)o1 | inconclusive: 14.1 µM [activator, partial curve, poor fit] |
| Cc1ccc(S(=O)(=O)N2CCN(C(=O)c3ccc4c(c3)OCO4)CC2)cc1 | inactive |
| CCc1ccc(-c2nc(CS(=O)CC(=O)NCCc3ccc(C)cc3)c(C)o2)cc1 (stereo not drawn) | inconclusive: 31.6 µM [activator, single point] |
| CCOc1ccc(N(C)C(=O)c2oc(=O)c3ccccc3c2-c2ccccc2)cc1 | inconclusive: 31.6 µM [activator, single point] |
| COc1ccc(-n2c(Cc3cccn3C)nnc2SCC(=O)Nc2ccc(C(C)=O)cc2)cc1 | inconclusive: 35.5 µM [activator, single point] |
| O=C(N/C=N/OCc1ccc(Cl)cc1Cl)NOCc1ncc(C(F)(F)F)cc1Cl | inconclusive: 35.5 µM [activator, single point] |
| COc1ccc(-c2cnc3c(NC(C)=O)cc(-c4cccc(C(=O)N(C)C)c4)cn23)cc1OC | inconclusive: 15.8 µM [activator, partial curve] |
| O=C(OCCN1CCN(C2CN(Cc3cn(Cc4ccc([N+](=O)[O-])cc4)nn3)S(=O)(=O)C2)CC1)c1cc2ccccc2o1 (stereo not drawn) | inactive |
| COc1ccc(-c2oc3cccnc3c2/C=C/c2ccc(OC)c(OC)c2)cc1 | inconclusive: 28.2 µM [activator, single point] |
| CCOC(=O)C1=C(CN2CCc3ccccc32)NC(=O)NC1c1ccc(Cl)cc1 (stereo not drawn) | inconclusive: 28.2 µM [activator, single point] |
| CC(C)C1C(=O)N(Cc2cn(CC3CCCCC3)nn2)CCS(=O)(=O)N1Cc1ccc(-c2cccc(CO)c2)cc1 (stereo not drawn) | inconclusive: 12.6 µM [activator, partial curve, poor fit] |
| O=C(c1ccc(F)cc1)N1CCN(S(=O)(=O)c2ccc3c(c2)OCCO3)CC1 | inactive |
| C[C@H]1CN([C@@H](C)CO)C(=O)c2cccc(NC(=O)c3ccc(-c4nccs4)cc3)c2O[C@@H]1CN(C)C(=O)Nc1cccc2ccccc12 | inconclusive: 11.2 µM [activator, full curve, poor fit] |
| Cc1cc(NC(=O)c2cccn2-c2nnc(N3CCCCC3)s2)ccc1Br | inconclusive: 50.1 µM [activator, single point] |

| Compound | Potency |
| --- | --- |
| CCN(CC)S(=O)(=O)c1ccc(N2CCCC2)c(NC(=O)Cc2ccc(OC)cc2)c1 | inconclusive: 8.91 µM [activator, partial curve] |
| Cc1cc2occ(CC(=O)N(C)CC(=O)Nc3c(C)cccc3C)c2cc1C | inactive |
| Cc1ccc(CCNC(=O)C23CN(Cc4ccccc4)CC2C(c2ccc([N+](=O)[O-])cc2)=NO3)cc1 (stereo not drawn) | inconclusive: 35.5 µM [activator, single point] |
| CCCC(=O)c1ccc(N2CCN(C(=O)c3ccccc3)CC2)c(F)c1 | inconclusive: 3.16 µM [activator, full curve, poor fit] |
| O=C(OCCN1C(=O)c2cccc3c(N4CCOCC4)ccc(c23)C1=O)c1cccc(Cl)c1 | inconclusive: 25.1 µM [activator, partial curve, poor fit] |
| Cc1cc(C)cc(OCC(=O)N2CCC(c3nc4ccccc4s3)CC2)c1 | inconclusive: 50.1 µM [activator, single point] |
| CC(C)C[C@H](NC(=O)c1nc[nH]c1C(=O)N1CCN(C(=O)OC(C)(C)C)CC1)C(=O)OCc1ccccc1 | inconclusive: 17.8 µM [activator, partial curve, poor fit] |
| Cn1c(=O)c2c(nc(CN3CCN(Cc4ccccc4)CC3)n2Cc2cccc(Cl)c2)n(C)c1=O | inactive |
| COc1cccc(-c2nc(SCC(=O)Nc3ccc4c(c3)OCCO4)c(-c3ccc(C)cc3)[nH]2)c1 | inconclusive: 14.1 µM [activator, partial curve, poor fit] |
| O=C(CN1C(=O)/C(=C2\SC(=S)N(CCS(=O)(=O)O)C2=O)c2ccccc21)Nc1cccc(Br)c1 | inconclusive: 28.2 µM [activator, partial curve, poor fit] |
| COc1ccc(NC(=O)C2Cc3c(-c4cccc(F)c4)ccnc3O2)cn1 (stereo not drawn) | inconclusive: 28.2 µM [activator, single point] |
| CS(=O)(=O)N(Cc1ccccc1)c1ccc(C(=O)Nc2ccc(Cl)cc2)cc1 | inconclusive: 14.1 µM [activator, partial curve, poor fit] |
| COc1ccc(N2CCC(CNC(=O)Nc3ccc(OC)cc3OC)C2)cc1 (stereo not drawn) | inconclusive: 31.6 µM [activator, partial curve, poor fit] |
| Cc1ccc(C)c(N2CCN(C(=O)C(CC(C)C)NS(=O)(=O)c3ccc4nc(C)sc4c3)CC2)c1 (stereo not drawn) | inconclusive: 31.6 µM [activator, single point] |
| COc1ccccc1C(=O)Nc1ccc(S(=O)(=O)Nc2ncccn2)cc1 | inactive |
| CCOc1ccccc1C(=O)N1CCC(c2nc3ccccc3o2)CC1 | inactive |
| COc1cc(/C=C/C(=O)NCCn2c(C)cc3ccccc32)cc(OC)c1OC | inconclusive: 35.5 µM [activator, single point] |
| C=C(C)Cn1c(SCC(=O)NN=Cc2c(O)ccc3ccccc23)nnc1-c1ccc(Br)cc1 | inactive |
